These results are taken from PubChem BioAssay AID485344 (National Center for Advancing Translational Sciences (NCATS), 2010).

Screen size: about 340,000 compounds; about 6,900 (2%) were called active. Cut-off read from the data, not from the text of the source: active = inhibition above about 30%; inactive = below that, where a call was filed. Only a part is listed here, and it is no random draw. The source gives no active or inactive call for entries shown without one.

This test addresses D(2) dopamine receptor (Homo sapiens) (UniProt P14416). In words: HTS Assay for Allosteric Antagonists of the Human D2 Dopamine Receptor: Primary Screen for Antagonists. Note: 0% is about no effect. The following applies: HEK293 TREx D2 cells, calcium flux, dopamine EC80; at 10 µM; stronger effect = higher value. The essentials: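 Cells plated overnight at 30 C with tetracycline; no-wash calcium dye, 30–90 min RT; 10 s baseline; compound pinned; 180 s read; EC80 dopamine added; another 180 s read.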
Chain of UniProt P14416 (P14416 whole entry, looked up): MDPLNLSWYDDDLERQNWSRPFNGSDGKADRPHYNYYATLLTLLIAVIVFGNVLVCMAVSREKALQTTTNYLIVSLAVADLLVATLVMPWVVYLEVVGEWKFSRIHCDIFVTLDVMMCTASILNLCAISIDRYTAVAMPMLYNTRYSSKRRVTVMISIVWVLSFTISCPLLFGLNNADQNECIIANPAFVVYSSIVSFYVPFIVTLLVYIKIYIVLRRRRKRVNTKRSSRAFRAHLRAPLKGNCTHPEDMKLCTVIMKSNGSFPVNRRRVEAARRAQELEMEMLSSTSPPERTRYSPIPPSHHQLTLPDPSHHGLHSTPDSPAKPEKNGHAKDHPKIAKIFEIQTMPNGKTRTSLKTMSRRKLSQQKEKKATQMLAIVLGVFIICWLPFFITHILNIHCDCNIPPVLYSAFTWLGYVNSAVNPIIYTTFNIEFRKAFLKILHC
(In general: A change in cytosolic calcium serves as a functional read-out for many receptors and channels.)
As to `Brc1ccc(CNCCCSc2nnnn2-c2ccccc2)cc1`, the inhibition (in general, the change of the read-out against control, counted positive when it falls) was -15%.

Consider `CC(=O)c1cc2c(cc1N/C(=N/S(=O)(=O)c1ccccc1)c1ccc(Cl)cc1)OCO2`, for which the inhibition was -5.92%.

`Cc1cc(C)cc(C(=O)Nc2c(C(=O)Nc3ccccc3F)oc3ccccc23)c1`: the inhibition was -1.78%.

For `COc1ccccc1OCCn1c(C(C)Oc2ccccc2)nc2ccccc21` (configuration not stated), the inhibition is 7.69%.

With `CC(C)c1ccc(NC(c2nnc(-c3ccccc3)o2)c2ccc(F)cc2Cl)cc1` (configuration not stated), the inhibition is -2.61%.

`CCN(CC)CCNC(=O)c1ccc(-c2nc(CS(=O)(=O)c3ccc(C)cc3)c(C)o2)cc1`: the inhibition was -2.24%.

Regarding `COc1ccccc1-c1nnc(SCC(N)=O)o1`, the inhibition is -2.88%.

For the compound `Cc1oc(-c2ccc(C(=O)NCc3ccc(F)cc3)cc2)nc1CS(=O)c1ccccc1` (configuration not stated), the inhibition worked out at 3.1%.

Regarding `CCOc1ccc(/C=C/c2nc(C#N)c(NC3CCCCC3)o2)cc1`, the inhibition was -7.7%.

Turning to `COc1ccc(NC(=O)Cn2cnc3ccc(S(=O)(=O)N4CCC(C)CC4)cc3c2=O)cc1Cl`, the inhibition is -3.69%.

For the compound `Cc1ccc(-n2ccnc(NCCc3ccc(S(N)(=O)=O)cc3)c2=O)c(C)c1`, the inhibition turned out to be 1.19%.

With `CC(C)(C)OC(=O)N1CCC(c2c(C(=O)NCCN3CCCC3)cnn2-c2ccc(Cl)cc2)CC1`, the inhibition amounted to 5.4%.

Take `COc1ccc(-c2cc(C(F)(F)F)n3nc(C(=O)O)c(Cl)c3n2)cc1OC`: the inhibition is -1.69%.

Turning to `CCN1CCN(S(=O)(=O)c2ccc(Cl)c(C(=O)NC3CCCC3)c2)CC1`, the inhibition is active: 46.6%.

Regarding `CCOc1ccc(NC(=O)Cn2cc(C(=O)c3ccc(F)cc3)c(=O)c3cc4c(cc32)OCCO4)cc1`, the inhibition amounted to 17.9%.

In the case of `CC(=O)c1cc(-c2ccccc2)n(CCC(=O)Nc2ccc(C(C)C)cc2)c1C`, the inhibition is -15.2%.

In the case of `Cc1ccc(-n2ncc(C(=O)N3CCN(Cc4ccccc4)CC3)c2C2CCN(C(=O)OC(C)(C)C)CC2)cc1`, the inhibition worked out at 13.1%.

For `COc1ccc(CN2CCCC(C(=O)c3ccc(SC)cc3)C2)cc1Cn1cccn1` (configuration not stated), the inhibition is active: 32.7%.

As to `COc1ccccc1CNC(=O)c1ccc2c(c1)N(Cc1cc(C)ccc1C)C(=O)c1ccccc1S2`, the inhibition was 0.229%.

As for `CCCCNC(=O)c1cc2c(=O)n3cccc(C)c3nc2s1`, the inhibition came out at 16.7%.

With `Cc1ccc(CNC(=O)c2oc3ccc(S(=O)(=O)N4CCC(C)CC4)cc3c2C)cc1`, the inhibition was -6.12%.

As for `Cc1cccc(OCC(=O)Nc2ccc3nc(Nc4cccc(C(F)(F)F)c4)cc(C)c3c2)c1`, the inhibition amounted to 2.18%.

Consider `CCCCN1C(=O)CN(C2CCCCCC2)C(=O)C1c1ccc(OC(C)C)c(OC)c1` (configuration not stated), for which the inhibition worked out at 2.4%.

Consider `COc1cc(C(=O)Nc2nc(C)c(Cc3ccc4c(c3)OCO4)s2)cc(OC)c1OC`, for which the inhibition was active: 39.7%.

`Cc1ccccc1CN1C(=O)C(O)(CC(=O)c2ccccc2)c2cc(Cl)ccc21` (configuration not stated): the inhibition was -0.81%.

For the compound `COc1ccc(NC(=O)C2=C(C)C(=O)OC23CCN(C(C)C)CC3)cc1Cl`, the inhibition was -1.39%.

Take `Cc1ccccc1NC(=O)CSc1nc2ccc(NC(=O)c3ccccc3)cc2s1`: the inhibition was 17.6%.

With `CC(=O)OCc1cnc(C)c2oc(=O)c(C(=O)Nc3ccc(C)cc3Cl)cc12`, the inhibition is -11.6%.

For the compound `COc1ccc(-c2coc3c2c(C)cc2oc(=O)c(C)c(C)c23)cc1`, the inhibition was determined as 1.83%.

With `CC(C)C(NC(=O)CN(c1cccc(F)c1)S(C)(=O)=O)C(C)C`, the inhibition is active: 38.6%.

With `CC1CCC(Nc2ncnc3onc(-c4ccc(Cl)cc4)c23)CC1` (configuration not stated), the inhibition was 1.16%.

As for `O/N=C1\CCCCc2ccccc21`, the inhibition was active: 33%.

Take `O=C(Nc1ccc2nc(SCC(=O)N3CCCc4ccccc43)sc2c1)c1cccc(Cl)c1`: the inhibition came to 14%.

Take `COc1ccc(CCNC(=O)C2CCN(c3nc4ccccc4nc3C(F)(F)F)CC2)cc1OC`: the inhibition was -2.48%.

`COc1ccc(C(=O)Oc2c(Sc3ccccc3)c(C)nn2-c2ccccc2)cc1OC`: the inhibition is -22%.

Turning to `Cc1ccc(NC(=O)CN2C(=O)CSc3ccc(S(=O)(=O)N4CCCC4)cc32)c(C)c1`, the inhibition is -8.89%.

Regarding `CCc1ccccc1Nc1cc(C(=O)NCCc2ccccc2)c2ccccc2n1`, the inhibition is -5.47%.

Turning to `COc1ccc(N2CCN(Cc3cc(=O)oc4ccc(OC)cc34)CC2)cc1`, the inhibition came to 10.6%.

As to `COc1ccccc1NC(=O)C1=C(C)Nc2nc3ccccc3n2C1c1cccc(Br)c1` (configuration not stated), the inhibition is 9.05%.

For `CCOC(=O)c1ccc2c(c1)N(Cc1cccc(C(F)(F)F)c1)C(=O)c1ccccc1S2(=O)=O`, the inhibition was -0.339%.

On to `CCCCNc1ccc2c3c(cccc13)C(=O)N(CCCC)C2=O`, for which the inhibition is active: 80.9%.

As to `O=C(Cn1c(=O)n(-c2ccc(F)cc2)c(=O)c2sc3ccccc3c21)NC1CCCCC1`, the inhibition is 3.59%.

As for `CCCOc1ccc(Nc2cc(C)nc(C)n2)cc1`, the inhibition was -1.25%.

As to `COc1ccc(OC)c(CCNc2nccn(-c3ccc(C)c(C)c3)c2=O)c1`, the inhibition was 2%.

As to `COc1ccc(NC(=O)CSCC(=O)N(C)Cc2ccc3c(c2)OCCO3)cc1`, the inhibition is active: 35.1%.

Consider `CCCn1ccc2c(OCC(=O)Nc3ccccc3OCC)cccc2c1=O`, for which the inhibition was -8.77%.

For the compound `Cn1c(SCc2cccc(F)c2)nc2c([nH]c3ccccc32)c1=O`, the inhibition was found to be 16.4%.

`O=C(NCC(c1cccnc1)N1CCOCC1)C(=O)Nc1ccc(F)cc1` (configuration not stated): the inhibition stood at 12.9%.

`COc1ccc(Cn2c(=O)[nH]c3cc(C(=O)N4CCN(c5ccccc5)CC4)ccc3c2=O)cc1`: the inhibition was 27.7%.

On to `Cc1ccc(CNC(=O)CCC(=O)N2Cc3ccccc3Oc3ncccc32)cc1`, for which the inhibition was -2.55%.

As for `CCc1nc2onc(C)c2c(=O)n1CC(=O)O`, the inhibition is -1.86%.

Turning to `O=C(c1cccc(Cl)c1)N(Cc1ccco1)Cc1ccccc1Cl`, the inhibition is 10.7%.

`COc1ccc2c(c1)c1c(c(=O)n(Cc3ccccc3)c(=O)n1CC(=O)Nc1c(C)cccc1C)n2C`: the inhibition turned out to be 7.02%.

`Cc1ccc(S(=O)(=O)NCCc2sc3nc(-c4ccccc4)nn3c2C)cc1C`: the inhibition turned out to be 8.84%.

As to `Cc1ccccc1-c1nc(CS(=O)(=O)CC(=O)Nc2cccc(C(F)(F)F)c2)c(C)o1`, the inhibition is -8.68%.

As to `O=S(=O)(Nc1cccc(-c2ccc(N3CCCCCC3)nn2)c1)c1ccccc1`, the inhibition worked out at 8.83%.

With `CC(C)c1ccccc1OCCCN1CCCC1`, the inhibition is active: 64.5%.

Consider `CCn1c(SCC(=O)N2CCC(C)CC2)nnc1-c1ccccc1O`, for which the inhibition worked out at 17.8%.

Take `Cc1oc(-c2cccc(Br)c2)nc1Cn1c(=O)cc(-c2ccccc2)c2c(C)nn(C)c21`: the inhibition came out at 13.2%.

As for `COc1ccc(-c2noc(Cn3c(=O)c4ccccc4n(CC(=O)Nc4cccc(C(F)(F)F)c4)c3=O)n2)cc1`, the inhibition is 12.1%.

Turning to `Cc1ccc(C)c(NS(=O)(=O)c2ccc3c(c2)n(C)c(=O)n3C)c1`, the inhibition was -20.6%.

For `O=C(Cc1ccc(F)cc1)NCCc1csc(-c2cccc(F)c2)n1`, the inhibition was -6.51%.

As to `CCOc1ccc(N(CC)S(=O)(=O)N2CCCC(C(=O)NCc3ccc(Cl)cc3)C2)cc1` (configuration not stated), the inhibition came to 3.6%.

For the compound `CC(C)NC(=O)N1CCC(N2CCN(Cc3ccc(F)cc3)C(=O)C2=O)CC1`, the inhibition was -1.71%.

In the case of `COC(=O)C(C)NC(=O)N1CCN(c2nnc(C)c3c(C)n(-c4ccc(Cl)cc4)nc23)CC1` (configuration not stated), the inhibition is -3.18%.

Take `Cc1ccc(S(=O)(=O)c2nnn3c2nc(NCc2cccs2)c2sccc23)cc1C`: the inhibition is -14.6%.

For `Cc1cc(C)cc(NC(=O)C2CCN(c3cc(C)nc4c(-c5ccc(Cl)cc5)c(C)nn34)CC2)c1`, the inhibition is -0.613%.

As for `Cc1ccc(NC(=O)C2CC(=O)NC(N3CCCCC3)=N2)cc1Cl` (configuration not stated), the inhibition was active: 70.9%.

On to `Cc1cccc(CS(=O)(=O)c2ncc(Cl)c(C(=O)Nc3nc4ccc(F)cc4s3)n2)c1`, for which the inhibition is -14.1%.

`Cn1nnnc1SCCNCc1ccccc1OCc1ccc(Cl)cc1Cl`: the inhibition was found to be 8.59%.

Turning to `Cc1ccc(N2CCN(S(=O)(=O)c3ccc4oc(=O)c5ncn(C)c5c4c3)CC2)c(C)c1`, the inhibition was -7.46%.

`CCOCCCNC(=O)Nc1cc(C(=O)NCc2ccc(C(C)C)cc2)ccc1N1CCCC1`: the inhibition is -2.76%.

For the compound `CC(C)OCCCN(C)C1CCN(S(=O)(=O)c2csc(C(N)=O)c2)CC1`, the inhibition is -10.2%.

Take `COc1ccc(-n2c(C)nc3cc(C(=O)NC4CCCC4)ccc32)cc1`: the inhibition is 9.58%.

For the compound `COc1cc2c(cc1OC)C(COc1ccc(F)cc1)N(C(=O)c1ccccc1F)CC2` (configuration not stated), the inhibition amounted to 15.5%.

Turning to `Cc1cccc(-c2nnc(SCC(=O)N3CCCc4ccccc43)o2)c1`, the inhibition stood at 10.8%.

As to `CC(=O)c1ccc(C(=O)N(Cc2cccnc2)c2nc3c(Cl)cccc3s2)cc1`, the inhibition was determined as 12.8%.

As for `Cc1cccc(C(=O)Nc2cc3c(cc2N2CCOCC2)n(C)c(=O)n3C)c1`, the inhibition is -3.76%.

For the compound `CCc1ccc(NC(=O)COC(=O)c2nc3nc(C)cc(C)n3n2)cc1`, the inhibition is active: 40.6%.

As for `Nc1c(-c2nc(-c3ccccc3)cs2)c2ccccn2c1C(=O)c1ccc2c(c1)OCO2`, the inhibition was -7.43%.

As for `CCN1C(C(=O)c2ccccc2)=C(OC(=O)COc2ccccc2)c2ccccc2S1(=O)=O`, the inhibition was -2.11%.

Take `O=C(NCCCN1CCN(c2ccccc2)CC1)c1nnc(Cc2ccc(F)cc2)o1`: the inhibition is -1.27%.

With `O=C(O)CC(NS(=O)(=O)c1ccc(Br)s1)c1ccccc1` (configuration not stated), the inhibition was 2.86%.

Take `CCOc1ccc(NC(=O)Cn2cc(C(=O)c3ccc(C)cc3)c(=O)c3cc4c(cc32)OCCO4)cc1`: the inhibition stood at 4.43%.

`Cc1cc(C)c(S(=O)(=O)N2CCN(Cc3nc4ccc(C)cc4o3)CC2)c(C)c1`: the inhibition is -1.12%.

Consider `CC1=C(C(=O)Nc2cc(C)ccc2C)C2(CCCCCC2)OC1=O`, for which the inhibition stood at 13.4%.

As for `Cc1onc(-c2ccc(Br)cc2)c1C(=O)Nc1ccc(Br)cc1F`, the inhibition is -24.7%.

For the compound `COc1ccc(-n2c(SCC(=O)Nc3nnc(C)s3)nc3c([nH]c4ccccc43)c2=O)cc1`, the inhibition was 5.2%.

In the case of `CCOC(=O)c1scc(-c2ccc(C)cc2)c1S(=O)(=O)Nc1cccc(CC)c1`, the inhibition is -13.4%.

As to `CC(C)N(C(=O)c1cc2c(Cl)nc3ccccc3c2s1)C1CCCCC1`, the inhibition was 6.73%.

As to `COc1cccc2sc(N3CCN(C(=O)CS(=O)(=O)c4ccc(Cl)cc4)CC3)nc12`, the inhibition was -7%.

Consider `COc1cccc(CNc2ncc(-c3ccc(Br)cc3)n2C)c1`, for which the inhibition turned out to be 23.9%.

In the case of `COc1ccc(-c2nc3ccc(NS(C)(=O)=O)cc3o2)cc1`, the inhibition was -4.68%.

Regarding `Clc1ccccc1Cn1cccc1C1=NC(Cc2ccccc2)CO1` (configuration not stated), the inhibition was -2.48%.

For `CCN(C(=O)c1cnc(N2CCN(c3ncccn3)CC2)c2ccccc12)c1cccc(Cl)c1`, the inhibition is active: 46.5%.

As for `Cn1c(SCC(N)=O)nc2c([nH]c3ccccc32)c1=O`, the inhibition is 12.3%.

Regarding `O=C(O)c1ccc(Nc2nc(-c3ccccc3)c3cc(Br)ccc3n2)cc1`, the inhibition is 0.932%.
